From PubChem BioAssay AID938 (National Center for Advancing Translational Sciences (NCATS), 2007)
About 1,800 (2.5%) of roughly 73,000 compounds were called active. This list was built around the results that the source calls inconclusive (neither active nor inactive); the mix of calls is not that of the screen. Calls follow the shape of the dose curve; as a rule, active = well fitted activation curve with a large enough effect; inconclusive = small, poorly fitted or top-dose-only effect; inactive = no such curve, though single readings can be large or run the other way. No potency is given beside an inconclusive call; the fits are too rough.

Experiment: qHTS Assay for Agonists of the Thyroid Stimulating Hormone Receptor: Activators of Intracellular cAMP Concentrations in Parental HEK 293; also: nearly all actives have a fitted effect of over 55% in size; as to activation: % of control where 0% means no effect
Conditions: parental HEK293 CNG cAMP sensor, membrane potential fluorescence; activation: at 57.1 µM (top of the series)
How it was run: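 Parental HEK 293 cells stably expressing a modified CNG channel (no TSHR) report cAMP rise as membrane depolarization. Membrane potential dye with 100 uM RO 20-1724 was loaded for 60 min at room temperature, then compound added for 30 min; fluorescence read at 590 nm.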
Potency is read from the fitted curve at half-maximal effect; tags tell the direction and shape of the fitted curve.

| SMILES | Potency | activation |
| --- | --- | --- |
| O=[N+]([O-])c1cccc(O)c1 | inconclusive [activator, single point] | – |
| NCCc1ccc(S(=O)(=O)O)cc1[N+](=O)[O-] | – | inactive: -6.32% [at 11.4 µM] |
| O=C(Oc1ccccc1)N1CCC[C@@]2(CCN(Cc3cc(C(F)(F)F)cc(C(F)(F)F)c3)C2)C1 | active: 15.8 µM | – |
| Cc1cccc(NC(=O)N[C@@H]2N=C(c3ccccc3)c3ccccc3N(CC(=O)c3ccccc3C)C2=O)c1 | inconclusive [activator, single point] | – |
| CCC(C)NC(=O)c1c(N)n(Cc2ccc3c(c2)OCO3)c2nc3ccccc3nc12 (stereo not drawn) | – | inactive: 13.3% |
| CC(C)OCCCNC(=O)c1c(N)n(CC2CCCO2)c2nc3ccccc3nc12 (stereo not drawn) | inconclusive [activator, full curve] | – |
| N=Cc1c(O)n(-c2cccc(Cl)c2)c(=O)[nH]c1=O | – | inactive: 11.5% |
| C=CCN1C[C@H](C)N([C@H](c2ccc(C(=O)N(CC)CC)cc2)c2cccc(O)c2)C[C@H]1C | – | inactive: 13.4% |
| Cc1ccc(C2CC(=O)C(C=NCCN3CCN(C(=O)Cc4ccccc4)CC3)=C(O)C2)cc1 (stereo not drawn) | inconclusive [activator, single point] | – |
| COc1ccc2[nH]c(C)c(CCN3CCC(=O)C(C)C3C)c2c1 (stereo not drawn) | inconclusive [activator, single point] | – |
| CCCCn1c(NC(=O)c2ccco2)c(C(=O)OCC)c2nc3ccccc3nc21 | active: 6.31 µM | – |
| CC1=CC(=O)C2=C(C)CC(O)C3C(C)C(=O)OC3C12 (stereo not drawn) | – | inactive: -2.55% |
| Cc1ccc(P(=O)(O)c2ccc(C)cc2)cc1 | inconclusive [activator, single point] | – |
| C=C(C)[C@@H]1CN[C@H](C(=O)O)[C@H]1CC(=O)O | inconclusive [activator, single point] | – |
| CCCN1CC[C@@H]2c3cc(O)ccc3CC[C@H]21 | inconclusive [activator, single point] | – |
| c1ccc(C2NCc3ccccc3-n3cccc32)cc1 (stereo not drawn) | active: 25.1 µM | – |
| C=CCO[C@@H](Cn1ccnc1)c1ccc(Cl)cc1Cl | inconclusive [activator, partial curve] | – |
| COc1ccc(-c2nnc3sc(C4CCCCC4)nn23)cc1OC | inconclusive [activator, single point] | – |
| Cc1c(C(=O)c2ccc3ccccc3c2)c2cccc3c2n1[C@H](CN1CCOCC1)CO3 | – | inactive: 28.5% |
| CC(C)NC[C@H](O)c1ccc(N)c(C#N)c1 | active: 0.005 µM | – |
| COc1ccc2c(c1)c(CCN1CCOCC1)c(C)n2C(=O)c1cccc(Cl)c1Cl | active: 10 µM | – |
| c1ccc2c(N3CCNCC3)cccc2c1 | inconclusive [activator, full curve, poor fit] | – |
| CCCCCCN=C(CC)c1c(O)n(CCCC)c(=O)[nH]c1=O | inconclusive [activator, single point] | – |
| c1cc(N2CCCC3(CCNCC3)C2)ccn1 | active: 2.51 µM | – |

| SMILES | Potency | activation |
| --- | --- | --- |
| CCOC(=O)c1cn2nc(OP(=S)(OCC)OCC)cc2nc1C | inconclusive [activator, partial curve] | – |
| CC(C)COC(=O)c1ccccc1C(=O)OCC(C)C | inconclusive [activator, partial curve, poor fit] | – |
| CN1Cc2ccccc2[C@@H]2c3cccc4[nH]cc(c34)C[C@H]21 | – | inactive: -11.3% |
| CCCCCOC(=O)c1ccccc1C(=O)OCCCCC | inconclusive [activator, single point] | – |
| O=C(N[C@H]1CN2CCC1CC2)c1ccc(Cl)cc1 | inconclusive [activator, single point] | – |
| COc1ccc2c3c1O[C@@H]1C(=O)CC[C@@]4(O)[C@@H](C2)N(CC2CC2)CC[C@]314 | inconclusive [activator, single point] | – |
| C[C@H](N)c1cccc(Cl)c1Cl | – | inactive: 7.57% |
| COC(=O)[C@@]1(Cc2ccc(F)cc2)[C@H]2c3cc(C(=O)N(C)C)[nH]c3C[C@H]2CN1C(=O)c1ccccc1 | – | inactive: 22.5% |
| O=NN(CCCl)C(=O)NCCCl | inconclusive [activator, single point] | – |
| c1ccc(P(c2ccccc2)c2ccccc2)cc1 | – | inactive: 25.4% |
| C=CCOC(=O)c1ccccc1N | inconclusive [activator, single point] | – |
| CCCc1c(C)c2cc(C)ccc2[nH]c1=O | inconclusive [activator, single point] | – |
| Nc1c(C(=O)OC2CCCCC2)c2nc3ccccc3nc2n1CC1CCCO1 (stereo not drawn) | – | inactive: 23.6% |
| CN1[C@@H]2CC(OC(=O)[C@@H](CO)c3ccccc3)C[C@@H]1[C@H]1O[C@H]12 (stereo partly drawn) | – | inactive: 1.24% [at 11.4 µM] |
| CCCc1[nH]nc2c1C(CCC)C(C#N)=C(N)O2 (stereo not drawn) | inconclusive [activator, partial curve] | – |
| c1ccc(CCCCN2CCC(c3ccccc3)CC2)cc1 | inconclusive [activator, full curve, poor fit] | – |
| c1cnc(N2CC[C@@]3(CCCNC3)C2)nc1 | inconclusive [activator, partial curve] | – |
| CCCOC(=O)COc1cc(C)cc2oc(=O)c3c(c12)CCC3 | inconclusive [activator, partial curve] | – |
| C[C@H](N[C@@H](C)CCc1ccccc1)[C@H](O)c1ccc(O)cc1 | inconclusive [activator, single point] | – |
| CSc1ccc(C(=O)C(C)(C)N2CCOCC2)cc1 | inconclusive [activator, partial curve] | – |
| Oc1c(Cl)cc(Cl)cc1Cl | inconclusive [activator, single point] | – |
| CCCCn1c(O)c(C(CC)=NCCc2ccccc2)c(=O)[nH]c1=O | inconclusive [activator, partial curve] | – |
| CN(C)c1ccc(N(C)C)cc1 | – | inactive: -14.6% |
| Cn1nc(-c2ccc(OCC(=O)N3CCN(Cc4ccccc4)CC3)cc2)c2ccccc2c1=O | inconclusive [activator, partial curve] | – |
